According to PubChem BioAssay (NCI):
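A five-concentration, 48-hour dose response in 96-well plates underlies each endpoint, interpolated linearly between surrounding concentrations. At the GI50, growth is halved.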 Not every entry of the source has a single result; some have several. The list is limited to them. There may be further records. For part of these data: Results that share an entry are repeats (runs, samples, wells, individuals or studies). Marks in square brackets tell the records apart. Letters count within one entry.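 Definition used: TGI = concentration required for complete inhibition of growth.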 For part of these data: Records of one sample usually come from different ranges of test concentrations, not given here; some values may only mark the edge of a range.

Key:
Test in all cases: inhibition of tumour cell growth, NCI panel, 48 h
COLO 205 colon = tested on: COLO 205 colon
NCI-H226 lung = tested on: NCI-H226 lung
SK-MEL-28 melanoma = tested on: SK-MEL-28 melanoma
TK-10 renal = tested on: TK-10 renal
UACC-62 melanoma = tested on: UACC-62 melanoma
MDA-N = tested on: MDA-N
HT29 colon = tested on: HT29 colon
SN12C renal = tested on: SN12C renal

For `Cn1c(=O)c(F)c(Nc2ccc(I)cc2F)c2c(=O)n(C[C@@H](O)CO)cnc21`, the TGI (COLO 205 colon) was 13.7 µM [sample A, mean of 2 tests] and 107 nM [sample B, 1 test], the GI50 (NCI-H226 lung) was 1.15 µM [sample A, mean of 2 tests] and 39.9 nM [sample B, 1 test] and the TGI (NCI-H226 lung) was 45 µM [sample A, mean of 2 tests] and 2.64 µM [sample B, 1 test]. For the same molecule, the TGI (SK-MEL-28 melanoma) was 14.3 µM [sample A, mean of 2 tests] and 26.5 nM [sample B, 1 test], the GI50 (TK-10 renal) was 183 nM [sample A, mean of 2 tests] and 16.2 nM [sample B, mean of 2 tests] and the TGI (UACC-62 melanoma) was 854 nM [sample A, mean of 2 tests] and 23.4 nM [sample B, 1 test].

For `CC(=O)OCC1OC(n2c(-c3ccccc3)c(N=Nc3ccc(Cl)cc3)c(C)c(C#N)c2=S)C(OC(C)=O)C(OC(C)=O)C1OC(C)=O` (centres undefined), the GI50 (MDA-N) was 9.45 µM [sample A, 1 test] and > 100 µM [sample B, 1 test].

For `CC(=O)OC1CC2(O)C(CCC3(C)C(c4ccc(=O)oc4)CCC32O)C2(C)CCC(O)C=C12` (centres undefined), the TGI (HT29 colon) was 143 nM and 1.99 µM and the TGI (SN12C renal) was 180 nM and 3.87 µM.
